In the supplement of paper PMC4967469:

What was measured:
Experiment in all cases: Viability of human cancer cell lines after 72 h of drug (GDSC screen)
CP724714 = compound: COCC(=O)NC/C=C/c1ccc2ncnc(Nc3ccc(Oc4ccc(C)nc4)c(C)c3)c2c1 [CP724714]; conditions: top dose 10.24 µM; top dose inferred
Method: (§1)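 Human cancer cell lines in 384-well plates, medium with 10% serum, drug for 72 h over a 256-fold dose range (nine 2-fold or five 4-fold steps up to the top dose). Adherent lines were fixed and stained with the nucleic acid dye Syto60, suspension lines read with resazurin; signal relative to control wells, capped at 0 and 100%. One two-parameter sigmoid per drug and line, fitted in a mixed model over all curves with the slope shared within a line.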

STF-62247 = compound: Cc1cccc(Nc2nc(-c3ccncc3)cs2)c1 [STF-62247]; conditions: top dose 10.24 µM; top dose inferred
Method: as §1

Bortezomib = compound: CC(C)C[C@H](NC(=O)[C@H](Cc1ccccc1)NC(=O)c1cnccn1)B(O)O [Bortezomib]; conditions: top dose 0.02 µM
Method: as §1

Paclitaxel = compound: CC(=O)O[C@H]1C(=O)[C@@]2(C)[C@H]([C@H](OC(=O)c3ccccc3)[C@]3(O)C[C@H](OC(=O)[C@H](O)[C@@H](NC(=O)c4ccccc4)c4ccccc4)C(C)=C1C3(C)C)[C@]1(OC(C)=O)CO[C@@H]1C[C@@H]2O [Paclitaxel]; conditions: top dose 0.1024 µM
Method: as §1

Obatoclax mesylate = compound: COC1=CC(c2cc3ccccc3[nH]2)=N/C1=C\c1[nH]c(C)cc1C [Obatoclax mesylate]; conditions: top dose 16 µM
Method: as §1

CX-5461 = compound: Cc1cnc(CNC(=O)c2c(=O)c3ccc(N4CCCN(C)CC4)nc3n3c2sc2ccccc23)cn1 [CX-5461]; conditions: top dose 10.24 µM; top dose inferred
Method: as §1

Cell Line	AUC (CP724714)	IC50 (CP724714)	AUC (STF-62247)	IC50 (STF-62247)	AUC (Bortezomib)	IC50 (Bortezomib)	AUC (Paclitaxel)	IC50 (Paclitaxel)	AUC (Obatoclax mesylate)	IC50 (Obatoclax mesylate)	AUC (CX-5461)	IC50 (CX-5461)
HA7-RCC (kidney, adherent)	0.971	> 10.2 µM	0.985	> 10.2 µM	0.487	1.14 nM	0.617	13.9 nM	0.386	468 nM	0.985	> 10200 nM
HAL-01 (lymphoblastic leukaemia, suspension)	0.988	> 10.2 µM	0.919	> 10.2 µM	0.553	1.72 nM	0.982	> 102 nM	0.049	< 62.5 nM	0.283	170 nM
HC-1 (hairy cell leukaemia, suspension)	0.987	> 10.2 µM	0.89	> 10.2 µM	0.605	2.4 nM	0.532	7.78 nM	0.549	1350 nM	0.518	714 nM
HCC1599 (breast, suspension)	0.975	> 10.2 µM	0.968	> 10.2 µM	0.752	7.48 nM	0.694	24.5 nM	0.328	308 nM	0.57	1030 nM
HCC2157 (breast, suspension)	0.982	> 10.2 µM	0.908	> 10.2 µM	0.68	4.09 nM	0.866	99.3 nM	0.521	1150 nM	0.987	> 10200 nM
HCC-33 (small cell lung carcinoma, adherent)	0.965	> 10.2 µM	0.988	> 10.2 µM	0.682	4.07 nM	0.887	> 102 nM	0.771	6210 nM	0.96	> 10200 nM
HD-MY-Z (Hodgkin lymphoma, adherent)	0.96	> 10.2 µM	0.982	> 10.2 µM	0.579	2.06 nM	0.635	15.1 nM	0.754	5420 nM	0.844	7390 nM
HDLM-2 (Hodgkin lymphoma, suspension)	0.988	> 10.2 µM	0.989	> 10.2 µM	0.713	4.96 nM	0.724	–	0.345	374 nM	0.989	> 10200 nM
HEL (acute myeloid leukaemia, semi-adherent)	0.965	> 10.2 µM	0.915	> 10.2 µM	0.537	1.55 nM	0.804	–	0.143	104 nM	0.526	742 nM
HSC-39 (stomach, suspension)	0.99	> 10.2 µM	0.975	> 10.2 µM	0.66	3.25 nM	0.788	38.3 nM	0.789	6010 nM	0.37	296 nM
HT (B-cell lymphoma, suspension)	0.988	> 10.2 µM	0.974	> 10.2 µM	0.586	2.1 nM	0.83	57 nM	0.258	218 nM	0.905	> 10200 nM
HT-144 (melanoma, adherent)	0.978	> 10.2 µM	0.984	> 10.2 µM	0.345	0.442 nM	0.572	10.3 nM	0.047	< 62.5 nM	0.913	> 10200 nM
HUTU-80 (digestive system, adherent)	0.903	9.41 µM	0.968	> 10.2 µM	0.424	0.805 nM	0.332	2.39 nM	0.14	101 nM	0.261	154 nM
Hs-445 (Hodgkin lymphoma, suspension)	0.989	> 10.2 µM	0.989	> 10.2 µM	0.556	1.76 nM	0.668	18.1 nM	0.531	1210 nM	0.94	> 10200 nM
IMR-5 (neuroblastoma, adherent)	0.982	> 10.2 µM	0.988	> 10.2 µM	0.991	> 20 nM	0.418	3.97 nM	0.182	138 nM	0.288	181 nM
IST-MEL1 (melanoma, adherent)	0.959	> 10.2 µM	0.982	> 10.2 µM	0.459	0.947 nM	0.645	17.5 nM	0.062	< 62.5 nM	0.649	1800 nM
IST-MES1 (mesothelioma, adherent)	0.977	> 10.2 µM	0.987	> 10.2 µM	0.814	11 nM	0.842	72.7 nM	0.375	450 nM	0.942	> 10200 nM
IST-SL1 (small cell lung carcinoma, semi-adherent)	0.986	> 10.2 µM	0.984	> 10.2 µM	0.685	4.18 nM	0.701	24 nM	0.721	4320 nM	0.782	4410 nM
IST-SL2 (small cell lung carcinoma, suspension)	0.988	> 10.2 µM	0.988	> 10.2 µM	0.503	1.28 nM	0.789	44.8 nM	0.177	107 nM	0.98	> 10200 nM
JJN-3 (haematopoietic neoplasm, suspension)	0.991	> 10.2 µM	0.97	> 10.2 µM	0.35	0.522 nM	0.573	9.73 nM	0.134	97.9 nM	0.982	> 10200 nM
JM1 (B-cell lymphoma, suspension)	0.969	> 10.2 µM	0.96	> 10.2 µM	0.404	0.712 nM	0.84	56.4 nM	0.16	113 nM	0.553	871 nM

IC50 is the fitted dose that halves viability relative to control wells, and lower means more sensitive; a limit (>, <) means that the fit lies beyond the doses tested. AUC is the area under the same curve over the 256-fold range up to the top dose, as a fraction; it is 1 without any effect and falls as sensitivity rises. For some of these results: The top dose, if marked as inferred, was calculated from the reported fits.
